# The supplement of paper PMC8728848
# This is one part of the list.
# B1: SpnanA (Streptococcus pneumoniae), P62575 (protein)
# chain: MVIEKEDVETNASNGQRVDLSSELDKLKKLENATVHMEFKPDAKAPAFYNLFSVSSATKKDEYFTMAVYNNTATLEGRGSDGKQFYNNYNDAPLKVKPGQWNSVTFTVEKPTAELPKGRVRLYVNGVLSRTSLRSGNFIKDMPDVTHVQIGATKRANNTVWGSNLQIRNLTVYNRALTPEEVQKRS
# Experiments:
# Assay in all cases: glycan array binding signal (z-score within array); higher = stronger binding
# Settings in all cases: glycan notation: IUPAC condensed, linker removed
# [1] = molecular target: Man(a1-3)[Man(a1-6)]Man(a1-6)[Man(a1-2)Man(a1-3)]Man(b1-4)GlcNAc(b1-4)GlcNAc
# How it was run: (§1)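 The binding signal is a Z-score computed within each array and averaged over linkers. Arrays of the same protein sequence at different concentrations or buffers were also averaged together. Data originate from 3228 arrays in the Consortium for Functional Glycomics database, kept only where the protein sequence was available.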
# [2] = molecular target: Man(a1-3)[Man(a1-6)]Man(a1-6)[Man(a1-3)]Man
# How it was run: as §1
# [3] = molecular target: Man(a1-3)[Man(a1-6)]Man(a1-6)[Man(a1-3)]Man(b1-4)GlcNAc(b1-4)GlcNAc
# How it was run: as §1
# [4] = molecular target: Man(a1-3)[Man(a1-6)]Man(b1-4)GlcNAc(b1-4)GlcNAc
# How it was run: as §1
# [5] = molecular target: Man(a1-3)[Man(a1-6)]Man(b1-4)GlcNAc(b1-4)[Fuc(a1-6)]GlcNAc
# How it was run: as §1
# Man(a1-6)Man = molecular target: Man(a1-6)Man
# How it was run: as §1
# Man(b1-4)GlcNAc = molecular target: Man(b1-4)GlcNAc
# How it was run: as §1
# Neu5Ac(a2-3)Gal = molecular target: Neu5Ac(a2-3)Gal
# How it was run: as §1
# [6] = molecular target: Neu5Ac(a2-3)Gal(b1-3)GalNAc
# How it was run: as §1
# [7] = molecular target: Neu5Ac(a2-3)Gal(b1-3)GalNAc(b1-3)Gal(a1-4)Gal(b1-4)Glc
# How it was run: as §1
# [8] = molecular target: Neu5Ac(a2-3)Gal(b1-3)GalNAc(b1-4)[Neu5Ac(a2-3)]Gal(b1-4)Glc
# How it was run: as §1
# [9] = molecular target: Neu5Ac(a2-3)Gal(b1-3)GalNAc(b1-4)[Neu5Ac(a2-8)Neu5Ac(a2-3)]Gal(b1-4)Glc
# How it was run: as §1
# [10] = molecular target: Neu5Ac(a2-3)Gal(b1-3)GalNAc6S
# How it was run: as §1
# [11] = molecular target: Neu5Ac(a2-3)Gal(b1-3)GlcNAc
# How it was run: as §1
# [12] = molecular target: Neu5Ac(a2-3)Gal(b1-3)GlcNAc(b1-2)Man(a1-3)[GlcNAc(b1-4)][Neu5Ac(a2-3)Gal(b1-3)GlcNAc(b1-2)Man(a1-6)]Man(b1-4)GlcNAc(b1-4)GlcNAc
# How it was run: as §1
# [13] = molecular target: Neu5Ac(a2-3)Gal(b1-3)GlcNAc(b1-2)Man(a1-3)[Neu5Ac(a2-3)Gal(b1-3)GlcNAc(b1-2)Man(a1-6)]Man(b1-4)GlcNAc(b1-4)GlcNAc
# How it was run: as §1
# [14] = molecular target: Neu5Ac(a2-3)Gal(b1-3)GlcNAc(b1-3)Gal(b1-3)GlcNAc
# How it was run: as §1
# [15] = molecular target: Neu5Ac(a2-3)Gal(b1-3)GlcNAc(b1-3)Gal(b1-4)GlcNAc
# How it was run: as §1
# [16] = molecular target: Neu5Ac(a2-3)Gal(b1-3)GlcNAc(b1-3)GalNAc
# How it was run: as §1
# [17] = molecular target: Neu5Ac(a2-3)Gal(b1-3)GlcNAc(b1-6)GalNAc
# How it was run: as §1
# [18] = molecular target: Neu5Ac(a2-3)Gal(b1-3)GlcNAc6S
# How it was run: as §1
# [19] = molecular target: Neu5Ac(a2-3)Gal(b1-3)[Fuc(a1-4)]GlcNAc
# How it was run: as §1
# [20] = molecular target: Neu5Ac(a2-3)Gal(b1-3)[Fuc(a1-4)]GlcNAc(b1-3)Gal(b1-3)[Fuc(a1-4)]GlcNAc
# How it was run: as §1
# [21] = molecular target: Neu5Ac(a2-3)Gal(b1-3)[Fuc(a1-4)]GlcNAc(b1-3)Gal(b1-4)[Fuc(a1-3)]GlcNAc
# How it was run: as §1
# [22] = molecular target: Neu5Ac(a2-3)Gal(b1-3)[Neu5Ac(a2-3)Gal(b1-4)]GlcNAc
# How it was run: as §1
# [23] = molecular target: Neu5Ac(a2-3)Gal(b1-3)[Neu5Ac(a2-6)]GalNAc
# How it was run: as §1
# [24] = molecular target: Neu5Ac(a2-3)Gal(b1-3)[Neu5Ac(a2-6)]GlcNAc(b1-3)[Fuc(a1-3)[Gal(b1-4)]GlcNAc(b1-6)]Gal(b1-4)Glc
# How it was run: as §1
# Neu5Ac(a2-3)Gal(b1-4)Glc = molecular target: Neu5Ac(a2-3)Gal(b1-4)Glc
# How it was run: as §1
# [25] = molecular target: Neu5Ac(a2-3)Gal(b1-4)GlcNAc
# How it was run: as §1
# [26] = molecular target: Neu5Ac(a2-3)Gal(b1-4)GlcNAc(b1-2)Man
# How it was run: as §1
# [27] = molecular target: Neu5Ac(a2-3)Gal(b1-4)GlcNAc(b1-2)Man(a1-3)[GlcNAc(b1-2)Man(b1-4)GlcNAc(b1-2)Man(a1-6)]Man(b1-4)GlcNAc(b1-4)GlcNAc
# How it was run: as §1
# [28] = molecular target: Neu5Ac(a2-3)Gal(b1-4)GlcNAc(b1-2)Man(a1-3)[Neu5Ac(a2-3)Gal(b1-4)GlcNAc(b1-2)Man(a1-6)]Man(b1-4)GlcNAc(b1-4)[Fuc(a1-6)]GlcNAc
# How it was run: as §1
# [29] = molecular target: Neu5Ac(a2-3)Gal(b1-4)GlcNAc(b1-2)Man(a1-3)[Neu5Ac(a2-6)Gal(b1-4)GlcNAc(b1-2)Man(a1-6)]Man(b1-4)GlcNAc(b1-4)GlcNAc
# How it was run: as §1
# [30] = molecular target: Neu5Ac(a2-3)Gal(b1-4)GlcNAc(b1-2)[Neu5Ac(a2-3)Gal(b1-4)GlcNAc(b1-6)]Man(a1-6)[Neu5Ac(a2-3)Gal(b1-4)GlcNAc(b1-2)Man(a1-3)]Man(b1-4)GlcNAc(b1-4)GlcNAc
# How it was run: as §1
# [31] = molecular target: Neu5Ac(a2-3)Gal(b1-4)GlcNAc(b1-3)Gal
# How it was run: as §1
# [32] = molecular target: Neu5Ac(a2-3)Gal(b1-4)GlcNAc(b1-3)Gal(b1-3)GlcNAc
# How it was run: as §1
# [33] = molecular target: Neu5Ac(a2-3)Gal(b1-4)GlcNAc(b1-3)Gal(b1-4)GlcNAc
# How it was run: as §1
binder,measurement,setting,value
B1,glycan array binding signal (z-score),[1],-0.212
same,glycan array binding signal (z-score),[2],-0.261
same,glycan array binding signal (z-score),[3],-0.271
same,glycan array binding signal (z-score),[4],-0.292
same,glycan array binding signal (z-score),[5],0.062
same,glycan array binding signal (z-score),Man(a1-6)Man,-0.265
same,glycan array binding signal (z-score),Man(b1-4)GlcNAc,-0.307
same,glycan array binding signal (z-score),Neu5Ac(a2-3)Gal,1.62
same,glycan array binding signal (z-score),[6],1.42
same,glycan array binding signal (z-score),[7],-0.024
same,glycan array binding signal (z-score),[8],1.27
same,glycan array binding signal (z-score),[9],-0.157
same,glycan array binding signal (z-score),[10],3.01
same,glycan array binding signal (z-score),[11],3.08
same,glycan array binding signal (z-score),[12],-0.212
same,glycan array binding signal (z-score),[13],1.09
same,glycan array binding signal (z-score),[14],1.04
same,glycan array binding signal (z-score),[15],1.17
same,glycan array binding signal (z-score),[16],0.475
same,glycan array binding signal (z-score),[17],1.62
same,glycan array binding signal (z-score),[18],-0.073
same,glycan array binding signal (z-score),[19],1.65
same,glycan array binding signal (z-score),[20],0.147
same,glycan array binding signal (z-score),[21],0.04
same,glycan array binding signal (z-score),[22],6.34
same,glycan array binding signal (z-score),[23],3.24
same,glycan array binding signal (z-score),[24],-0.083
same,glycan array binding signal (z-score),Neu5Ac(a2-3)Gal(b1-4)Glc,0.479
same,glycan array binding signal (z-score),[25],0.992
same,glycan array binding signal (z-score),[26],2.64
same,glycan array binding signal (z-score),[27],0.252
same,glycan array binding signal (z-score),[28],0.895
same,glycan array binding signal (z-score),[29],0.022
same,glycan array binding signal (z-score),[30],0.022
same,glycan array binding signal (z-score),[31],2.6
same,glycan array binding signal (z-score),[32],0.141
same,glycan array binding signal (z-score),[33],0.146
